Test results as given in the supplement of paper PMC9433436.
± gives the standard deviation of the averaged measurements. Whole data set: some 4,100 sequences, median “relative kcat/Km (krel) vs genomic leader AAAGAU” near 1.7, cut for the highest 2% near 6.5. Only a part is listed here, and it is no random draw.

Target: T1, E. coli RNase P holoenzyme (M1 P RNA + rnpA protein) (UniProt P0A7Y8)
T1 sequence: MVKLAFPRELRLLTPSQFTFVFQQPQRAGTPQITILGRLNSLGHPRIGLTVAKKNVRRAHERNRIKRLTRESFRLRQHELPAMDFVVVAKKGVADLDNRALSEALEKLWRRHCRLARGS
Test: relative kcat/Km (krel) vs genomic leader AAAGAU (relative (reference leader = 1)); higher = faster RNase P cleavage
Experimental: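 HTS-Kin: a pool of ptRNA-Met (21C construct) with all 4096 combinations of 5' leader nucleotides N(-6) to N(-1) was processed in vitro by E. coli RNase P (P RNA + rnpA/C5 protein) under multiple-turnover conditions at 37 C, pH 8, 17.5 mM MgCl2. Residual substrate was Illumina-sequenced at several fractions reacted, and relative kcat/Km (krel) was computed by internal competition kinetics, calibrated to the genomic leader (AAAGAU = 1). The listed hexamer is the varied N(-6)..N(-1) leader (DNA letters), and it sits between a fixed 5' stem-loop flank (GCAUGCACGAAAGUGCGUGCUAUGAA) and the mature tRNA-Met starting GGCUACGUAGCUCAGUUGG. Two technical replicates are averaged.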

[1] = fraction of substrate reacted: ~9-10% (9.79% repeat 1, 9.1% repeat 2)
[2] = fraction of substrate reacted: ~26-29% (28.66% repeat 1, 26.4% repeat 2)
[3] = fraction of substrate reacted: ~13-16% (15.68% repeat 1, 13.17% repeat 2)

Sequence	relative kcat/Km [1]	relative kcat/Km [2]	relative kcat/Km [3]
GAACGG	0.335 ± 0.15	0.467 ± 0.29	–
AGCCCC	2.38 ± 0.6	2.49 ± 0.43	2.27 ± 0.35
TAGCAC	2.83 ± 0.95	4.7 ± 2.2	2.84 ± 1.8
CCTAGG	–	0.794 ± 0.77	–
CTGGTT	0.626 ± 0.35	0.983 ± 0.93	–
GGCTAC	1.69 ± 1.4	2.81 ± 1.3	1.98 ± 0.51
GGTCAA	0.981 ± 0.11	1.83 ± 1.1	1.45 ± 0.14
CTGCAC	1.99 ± 0.74	2.55 ± 1	1.73 ± 0.084
GTTACC	1.71 ± 0.9	2.36 ± 0.55	1.91 ± 0.26
GTACCC	1.91 ± 0.18	2.18 ± 1.1	2.21 ± 0.48
AGGTTA	1.53 ± 1	1.39 ± 0.61	0.998 ± 0.84
TCTGCT	1.85 ± 0.83	0.979 ± 0.43	0.832 ± 0.068
GAGTCG	–	0.621 ± 0.4	–
TCCTTG	–	3.06 ± 0.64	1.3 ± 0.69
GCACTC	0.672 ± 0.14	2.2 ± 0.92	0.481 ± 0.091
TTTACC	1.47 ± 0.88	2.36 ± 0.69	1.75 ± 0.022
TTTCGC	2.98 ± 0.12	5.72 ± 2.5	3.83 ± 0.72
CTCGCC	4.36 ± 1.6	–	5.23 ± 1.7
TGTCCG	–	1.41 ± 0.048	0.289 ± 0.26
GTCTAC	4.47 ± 0.65	10.1 ± 4.8	6.86 ± 2.4
CAAGTC	0.799 ± 0.27	1.21 ± 0.051	1.03 ± 0.39
AGTCCC	2.42 ± 0.049	3.09 ± 1.6	2.36 ± 1.2
CCCTTG	–	1.42 ± 0.67	–
GGCCCA	1.35 ± 0.049	1.26 ± 0.18	0.697 ± 0.32

Sequence	relative kcat/Km [1]	relative kcat/Km [2]	relative kcat/Km [3]
CATGAA	2.31 ± 0.97	3.87 ± 1.4	2.74 ± 0.47
ACTTCG	–	1.07 ± 0.038	0.314 ± 0.17
AGTCGC	2.42 ± 0.72	4.61 ± 2.1	2.74 ± 0.56
GGTTTA	1.48 ± 0.69	1.52 ± 0.42	1.5 ± 0.23
TGGTCT	–	0.817 ± 0.39	–
ACAACT	–	1.07 ± 0.15	–
TCATTT	3.58 ± 1.6	6.04 ± 2.5	4.04 ± 0.4
TGGTAC	–	0.612 ± 0.15	0.76 ± 0.74
ATGAGT	1.42 ± 0.72	0.564 ± 0.22	–
CCTGTT	1.06 ± 0.7	1.62 ± 0.7	–
GGGTAT	–	1.76 ± 1.6	1.13 ± 0.41
CATTCA	2.03 ± 0.96	2.76 ± 0.83	2.26 ± 0.27
TATATG	–	2.81 ± 0.6	0.979 ± 0.056
TTACAA	2.54 ± 2	4.16 ± 1.8	2.85 ± 0.95
TTTCTA	2.15 ± 0.72	2.89 ± 1.2	2.3 ± 0.57
GCCACA	2.03 ± 0.3	4.01 ± 1.5	2.52 ± 0.9
CGTTTA	2.35 ± 0.28	4.14 ± 1.4	3.11 ± 0.48
ACACAT	2.48 ± 1.5	4.1 ± 1.6	3.18 ± 0.39
AGACGG	–	–	0.433 ± 0.39
GCATCA	–	1.4 ± 0.13	1.3 ± 1.1
ACCATC	2.48 ± 0.84	3.82 ± 0.76	2.51 ± 0.46
TTGCTT	1.5 ± 0.55	2.15 ± 0.85	1.36 ± 0.26
GAACAA	1.26 ± 1.2	2.38 ± 0.33	1.76 ± 0.95
TGCAAT	0.917 ± 0.7	1.9 ± 0.94	1.18 ± 0.72

Sequence	relative kcat/Km [1]	relative kcat/Km [2]	relative kcat/Km [3]
TCTGTT	1.56 ± 0.75	1.89 ± 1.2	1.38 ± 1.1
TATTAG	2.38 ± 2.3	4.43 ± 1.4	2.95 ± 0.03
ACCATG	–	1.58 ± 0.72	–
TCAAAA	2.12 ± 1.1	2.89 ± 1.2	1.64 ± 0.34
TGTGAG	1.35 ± 0.94	1.18 ± 0.15	–
AACCAG	–	2.58 ± 0.11	0.703 ± 0.2
TTATCT	2.77 ± 0.45	5.02 ± 2.2	3.58 ± 0.95
GGGTGC	0.876 ± 0.24	1.04 ± 0.35	0.837 ± 0.025
TACCTT	2.52 ± 0.33	5.64 ± 2.6	3.78 ± 0.62
GTCATG	–	3.5 ± 0.91	1.48 ± 0.37
TCCATC	3.7 ± 1.8	6.33 ± 2.3	3.95 ± 0.47
GCTCTA	0.921 ± 0.12	1.21 ± 0.26	0.567 ± 0.2
GCCTCA	3.93 ± 1.6	5.77 ± 2.1	4.02 ± 0.47
TGCATG	–	1.12 ± 0.18	–
CGTCTT	3.18 ± 0.98	4.33 ± 1.6	3.53 ± 0.78
CGGCTC	0.705 ± 0.047	–	–
GATCGA	2.37 ± 0.82	4.26 ± 1.2	2.79 ± 1.2
GTTGAA	2.16 ± 0.94	3.54 ± 1.2	2.71 ± 0.089
AGGTCG	–	0.539 ± 0.51	–
AGGTCT	–	0.922 ± 0.2	1.17 ± 0.5
AAGTCG	–	1.33 ± 0.073	–
AGGGGT	–	0.973 ± 0.015	–
